Experimental data: paper PMC4336329 (PLoS ONE, 2015)
Hit rate of the full screen: of about 310,000 compounds, about 2,200 (0.71%) showed an effect of 50% or more. Effects have a minus sign here. This is one part of the list.

The compounds below were run against human ether-à-go-go-related gene (hERG) potassium channel (human, UniProt Q12809) (assay: primary screen, population patch clamp on CHO cells stably expressing hERG).
human ether-à-go-go-related gene (hERG) potassium channel, sequence (Q12809 whole entry, looked up): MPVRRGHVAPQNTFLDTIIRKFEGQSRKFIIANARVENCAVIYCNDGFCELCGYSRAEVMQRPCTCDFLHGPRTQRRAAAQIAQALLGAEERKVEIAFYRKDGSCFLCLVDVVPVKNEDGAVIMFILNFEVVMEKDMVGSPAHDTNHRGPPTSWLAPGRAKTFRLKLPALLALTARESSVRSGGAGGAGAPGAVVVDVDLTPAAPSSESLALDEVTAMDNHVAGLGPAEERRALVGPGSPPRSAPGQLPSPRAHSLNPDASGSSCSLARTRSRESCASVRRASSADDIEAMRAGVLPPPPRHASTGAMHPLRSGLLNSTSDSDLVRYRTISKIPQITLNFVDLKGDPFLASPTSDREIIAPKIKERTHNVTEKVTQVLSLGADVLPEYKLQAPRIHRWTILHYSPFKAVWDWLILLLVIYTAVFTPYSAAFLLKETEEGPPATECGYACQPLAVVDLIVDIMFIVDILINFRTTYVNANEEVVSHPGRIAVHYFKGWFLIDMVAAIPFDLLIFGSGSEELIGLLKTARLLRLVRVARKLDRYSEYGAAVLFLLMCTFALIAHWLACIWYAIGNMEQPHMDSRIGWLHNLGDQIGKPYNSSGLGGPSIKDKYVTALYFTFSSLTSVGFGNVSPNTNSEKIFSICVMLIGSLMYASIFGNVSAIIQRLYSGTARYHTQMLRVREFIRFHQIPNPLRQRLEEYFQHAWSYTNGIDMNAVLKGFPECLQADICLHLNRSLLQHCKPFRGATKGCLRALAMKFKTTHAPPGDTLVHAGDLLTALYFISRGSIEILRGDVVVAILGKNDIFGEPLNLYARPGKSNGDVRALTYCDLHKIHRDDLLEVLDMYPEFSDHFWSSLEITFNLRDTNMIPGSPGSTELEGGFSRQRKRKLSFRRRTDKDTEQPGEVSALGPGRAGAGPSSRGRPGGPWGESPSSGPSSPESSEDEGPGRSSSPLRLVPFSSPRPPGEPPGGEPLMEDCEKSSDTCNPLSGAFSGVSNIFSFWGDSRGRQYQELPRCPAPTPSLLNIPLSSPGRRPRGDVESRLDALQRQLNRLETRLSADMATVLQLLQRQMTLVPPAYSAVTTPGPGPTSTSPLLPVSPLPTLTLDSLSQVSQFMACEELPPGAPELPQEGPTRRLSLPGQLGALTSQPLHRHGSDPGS

Going from `COc1cc(/C=C(\C#N)C(=O)Nc2ccccc2)ccc1OCCN1CCOCC1` to `COC(=O)C1=C(c2cccc(OCc3ccccc3)c2)C[C@@H]2CC[C@H]1N2C(=O)NCCN1CCOCC1`, the “hERG current change (%, negative = inhibition) at 1uM” value rises from 1.93% to 10.5%.

First: Cc1ccc(NC(=O)c2ccccc2NS(=O)(=O)c2ccc(Cl)s2)cc1S(=O)(=O)N1CCOCC1
Second: O=C(Nc1ccc(S(=O)(=O)Nc2cnc3ccccc3n2)cc1)c1cc(F)c(F)cc1Cl
The “hERG current change (%, negative = inhibition) at 1uM” value of the first is higher: 11.8% for the first, 3.25% for the second.

Going from `COc1cccc(C(=O)Nc2nc(C)cs2)c1` to `Cc1cccc(OCC(=O)NNC(=O)c2cccs2)c1`, the “hERG current change (%, negative = inhibition) at 1uM” value rises from 7.33% to 9.68%.

Going from `O=S(=O)(NCc1cn2ccccc2n1)c1cc(F)ccc1F` to `O=C(COc1ccc([N+](=O)[O-])cc1)NNC(=O)Nc1cccc(F)c1`, the “hERG current change (%, negative = inhibition) at 1uM” value falls from 11.1% to -4.52%.

Going from `CCOC(=O)c1nn(-c2ccc(C)c(C)c2)c(=O)c2c(N)scc12` to `CCOC(=O)c1c(NS(C)(=O)=O)sc2c1CCC(C)C2` (stereo not shown), the “hERG current change (%, negative = inhibition) at 1uM” value rises from -4.42% to 10.4%.

Going from `N#Cc1ccc(CSc2nnc(-c3cccnc3)n2-c2ccccc2)cc1` to `O=C(CSc1nc(SCC(=O)NCc2ccccc2)n(-c2ccccc2)n1)NCc1ccccc1`, the “hERG current change (%, negative = inhibition) at 1uM” value rises from -26.5% to -7.14%.

Going from `CCCn1c(SCC(=O)NC)nnc1C(C)C` to `CC(C)CC(NC(=O)c1ccc(C#CC(C)(C)O)s1)C(=O)O` (stereo not shown), the “hERG current change (%, negative = inhibition) at 1uM” value rises from 12.7% to 19.4%.

Compared with `O=C1NCCN(Cc2c(F)cccc2Cl)C1CC(=O)N1CCCO1` (stereo not shown), `O=C(CCC1CCN(C(=O)c2cccc(Cl)c2F)CC1)Nc1ccccc1` is lower in “hERG current change (%, negative = inhibition) at 1uM” value: 17.5% for the first, -1.08% for the second.

First: CSc1nnc(-c2cccc(C)c2)n1N
Second: O=C(Nc1cc(Cl)ccc1Cl)Nn1cnnc1
The “hERG current change (%, negative = inhibition) at 1uM” value of the first is lower: 12.5% for the first, 17.9% for the second.

First: N/C(=N\OC(=O)CCC(=O)O)c1ncc(C(F)(F)F)cc1Cl
Second: CCCCNC(=O)c1ccccc1NC(=O)CCC
The “hERG current change (%, negative = inhibition) at 1uM” value of the first is higher: 14.3% for the first, 1.34% for the second.

Compared with `COc1cc(OC)c(C(=O)Nc2ccc(C(=O)c3ccccc3)cc2)cc1OC`, `O=C(NC(=S)NC1CCS(=O)(=O)C1)c1ccccc1` (stereo not shown) is lower in “hERG current change (%, negative = inhibition) at 1uM” value: 12.5% for the first, 9.57% for the second.

Going from `O=C(CCCn1c(=O)[nH]c2ccsc2c1=O)N1CCN(c2ccccn2)CC1` to `CC1CN(C2=NC(=O)/C(=C3/C(=O)N(Cc4ccc(F)cc4)c4ccccc43)S2)CC(C)O1` (stereo not shown), the “hERG current change (%, negative = inhibition) at 1uM” value rises from 13.5% to 15.3%.

With `CC1CCN(C(=O)c2cc(S(=O)(=O)N3CCCCC3)c[nH]2)CC1` the “hERG current change (%, negative = inhibition) at 1uM” value was 15.9%.
